# Assay results from PubChem BioAssay AID686979 (National Center for Advancing Translational Sciences (NCATS), 2013).
# Screen size: about 420,000 compounds; about 50,000 (12%) were called active. Inconclusive results, whose numbers are uncertain, are shown with a selection of clear calls. The call rests on the fitted dose curve; in most records, active means well fitted inhibition curve with a large enough effect; inconclusive means small, poorly fitted or top-dose-only effect; inactive means flat fitted curve, though single readings scatter. Potencies of inconclusive entries are left out as doubtful fits.
# Test: qHTS for Inhibitors of human tyrosyl-DNA phosphodiesterase 1 (TDP1): qHTS in cells in presence of CPT; further: nearly all actives have a fitted effect of over 55% in size
# Settings: chicken DT40 Tdp1-/-;hTDP1 cells + 20 nM CPT, ATP luminescence, 48 h; activity change, negative = growth inhibition: at 46.2 µM (top of the series)
# How it was run: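 Chicken DT40 Tdp1-/- cells complemented with human TDP1, 400 cells/well, exposed to compounds plus 20 nM camptothecin for at least 48 h at 37 C; viability read as ATP content by CellTiter-Glo luminescence.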
# On the % scale 0 is the no-effect control and ±100 the full control effect; potency means the concentration at half of the fitted maximal effect; tags describe the fitted curve by direction and shape.
Compound,Potency,"activity change, negative = growth inhibition"
NC(=O)CSc1nc2sc(-c3ccccc3)cc2c(=O)n1N,"inconclusive [inhibitor, partial curve]",–
Cc1nnc(SCC(=O)N/N=C/c2cn(-c3ccccc3)nc2-c2ccccc2)n1-c1ccccc1,"inconclusive [inhibitor, single point]",–
CN(c1ccccc1)S(=O)(=O)c1ccc(C(=O)NCc2ccccc2F)cc1,"inconclusive [inhibitor, full curve, poor fit]",–
CC(=O)Nc1cc(-c2cccc(C(=O)NCCN(C)C)c2)cn2c(-c3ccccc3)cnc12,"inconclusive [inhibitor, single point]",–
COc1cc(Cl)c(C)cc1NC(=O)CSC1=NCCS1,"inconclusive [inhibitor, single point]",–
Cc1nc2ccccc2c2oc(C(=O)NCC3COc4ccccc4O3)cc12 (stereo unspecified),active: 20.6 µM,–
Cn1nc(CC(=O)Nc2ncc(Br)s2)c2ccccc2c1=O,active: 10.3 µM,–
COc1cccc(CC(=NO)c2cccc(OC)c2)c1,"inconclusive [inhibitor, single point]",–
O=C(Cc1cccc([N+](=O)[O-])c1)Nc1ccc(C(=O)N2CCCCC2)cc1,"inconclusive [inhibitor, single point]",–
N/C(=N\N=C/c1ccc(Br)cc1)N/N=C\c1ccc(Br)cc1,"inconclusive [inhibitor, partial curve, poor fit]",–
CC(=O)N1CCN(C(=O)CN2C(=O)NC(C)(c3ccc4ccccc4c3)C2=O)CC1 (stereo unspecified),inactive,–
CCC1=C(OC(=O)c2ccccc2)C(C)(C)C(c2ccccc2)OC1=O (stereo unspecified),"inconclusive [inhibitor, single point]",–
Cc1[nH]c(=O)[nH]c(=O)c1S(=O)(=O)Nc1cccc([N+](=O)[O-])c1C,inactive,–
O=C(NNc1ccccc1[N+](=O)[O-])Nc1ccc(F)cc1,"inconclusive [inhibitor, partial curve]",–
CCOC(=O)C(C)Sc1ncc(-c2ccc(Cl)cc2)cn1 (stereo unspecified),active: 4.61 µM,–
O=S(=O)(c1ccc2nc(N3CCN(c4ccc(F)cc4)CC3)ccc2c1)N1CCCCC1,"inconclusive [inhibitor, single point]",–
CC(=O)N1CCN(c2ccccc2NC(=O)COc2cc(C)cc(C)c2)CC1,inactive,–
CCC(C)Nc1nc2ccccc2n2c(C)nnc12 (stereo unspecified),inactive,–
CCc1ccc(-n2nnc(-c3nc(-c4ccc(C)cc4)no3)c2N)cc1,inactive,–
CCC(C)C(NC(=O)c1ccccc1)C(=O)N1CCN(C(=O)c2ccccc2)CC1 (stereo unspecified),"inconclusive [inhibitor, single point]",–
Cc1ccccc1NC(=O)C(C)c1ccc(-c2ccccc2)c(F)c1 (stereo unspecified),"inconclusive [inhibitor, single point]",–
Cc1ccc(C)c(S(=O)(=O)N2CCN(C(=O)c3cc(S(=O)(=O)NCc4ccccc4)ccc3C)CC2)c1,active: 23.1 µM,–
COc1cc(Cl)c(C)cc1NC(=O)Cn1c2ncccc2c(=O)n1-c1ccccc1,"inconclusive [inhibitor, single point]",–
O=C1c2cccc3cccc(c23)C(=O)N1c1ccncc1,"inconclusive [inhibitor, single point]",–

Compound,Potency,"activity change, negative = growth inhibition"
COc1ccc(CCNc2cc(C)nc3c(-c4ccc(Cl)cc4)c(C)nn23)cc1OC,"inconclusive [inhibitor, single point]",–
COCc1cc(C)nc2c1C(=O)NC(c1ccc(Br)cc1)N2Cc1ccccc1 (stereo unspecified),"inconclusive [inhibitor, single point]",–
Cc1cc(/C=C(/C#N)C(=O)O)c(C)n1CCC(C)C,"inconclusive [inhibitor, single point]",–
COc1cccc(N2CCN(C(=O)Cn3nc(C)n4c(cc5c(OC)cccc54)c3=O)CC2)c1,inactive,–
CCOC(=O)N1CCC(NS(=O)(=O)c2ccc(NC(C)=O)c(Cl)c2)CC1,active: 23.1 µM,–
COc1ccc(/C=C2\CCCC3C2=NN(C(=O)c2scnc2C)C3c2ccc(OC)cc2)cc1 (stereo unspecified),"inconclusive [inhibitor, single point]",–
C=CCn1c(=O)c(C(=O)NCc2ccc(Cl)cc2)c(O)c2ccccc21,"inconclusive [inhibitor, single point]",–
CN(C)c1ccc(C=NN2CCCCCC2)cc1,"inconclusive [inhibitor, single point]",–
CC(=O)[C@@H]1[C@@H](C(=O)c2ccc(F)cc2)[C@]2(C(=O)Nc3ccccc32)[C@H]2C=Cc3cc(F)ccc3N12,"inconclusive [inhibitor, partial curve]",–
Cc1cccc(C)c1NC(=S)N/N=C/c1ccc(C(=O)O)cc1,inactive,–
N#CC(c1ccccc1O)N1N=C(c2ccccc2)CC1c1ccccc1 (stereo unspecified),active: 18.4 µM,–
CC(C)CN1CCC(=O)N([C@H](CSc2ccc(Br)cc2)Cc2ccccc2)CC1,active: 14.6 µM,–
O=C(c1cccs1)c1coc2ccc(O)c(CN3CCOCC3)c12,"inconclusive [inhibitor, single point]",–
COc1ccc(Cl)cc1Nc1nc(-c2sc(NC(=O)c3ccco3)nc2C)cs1,"inconclusive [inhibitor, single point]",–
O=C1NC[C@H](c2ccccc2)N(CCc2cc(C(F)(F)F)cc(C(F)(F)F)c2)C1=O,"inconclusive [inhibitor, single point]",–
Cc1ccccc1CCNC(=O)CCn1ccc2cc(S(=O)(=O)N3CCCC3)ccc21,"inconclusive [inhibitor, single point]",–
O=C(NNC(=O)c1ccc(Cl)cc1Cl)Nc1ccccc1,inactive,–
CCCCCC(=O)N(Cc1ccccc1)c1c(N)n(CCOC)c(=O)[nH]c1=O,inactive,–
COC(=O)c1ccc(CSc2nc(C(F)F)cc(C)c2C#N)o1,"inconclusive [inhibitor, partial curve]",–
CCOc1cc(Br)c(C=O)cc1OCC,active: 5.17 µM,–
O=[N+]([O-])c1cccc(/C=C/C=N/Nc2nc(N3CCCCC3)nc(N3CCCCC3)n2)c1,inactive,–
CN(CC(=O)Nc1c(Cl)cccc1Cl)C(=O)c1cccc(S(=O)(=O)NCc2ccccc2)c1,"inconclusive [inhibitor, partial curve]",–
CN(C)C(=O)N1CCC(C(=O)NCc2cccs2)CC1,inactive,–
Cc1ccc(NC(=O)C2CCN(C(=O)OC(C)(C)C)CC2)cc1S(=O)(=O)N1CCCCC1,"inconclusive [inhibitor, partial curve, poor fit]",–

Compound,Potency,"activity change, negative = growth inhibition"
CCNc1nc(NCC)n2c(SCC(=O)Nc3ccc(OC(F)F)cc3)nnc2n1,–,inconclusive: -31.3% [inhibitor]
Cc1csc(NCC(=O)c2c[nH]c3ccccc23)n1,inactive,–
Cc1cccc(C(=O)NC(=S)Nc2ccc(N3CCOCC3)cc2)c1,"inconclusive [inhibitor, single point]",–
Cc1cccc(-n2c(O)c(C=NC3CCS(=O)(=O)C3)c3ccccc3c2=O)c1C (stereo unspecified),active: 5.17 µM,–
COc1ccc(C(=O)N2CCOC2CNC(=O)C(=O)NCc2ccc(Cl)cc2)cc1 (stereo unspecified),inactive,–
CNC(=S)NN=C(C)CCCC(C)=NNC(=S)NC,active: 0.164 µM,–
CCc1ccc(NC(=O)CSc2nc3c(c(=O)[nH]2)CN(Cc2ccc(C)cc2)CC3)cc1,"inconclusive [inhibitor, single point]",–
O=C(COc1ccc(C(=O)c2ccc(F)cc2)cc1)NCc1ccc(F)cc1,active: 3.26 µM,–
COc1ccc(C2C(C(=O)c3cccs3)=C(O)C(=O)N2c2nnc(C)s2)cc1OC (stereo unspecified),inactive,–
COc1ccccc1/C=C/C=N/n1c(-c2ccccc2)n[nH]c1=S,"inconclusive [inhibitor, single point]",–
NC(CO)c1csc(NC(=O)Nc2ccccc2Cc2ccccc2)n1 (stereo unspecified),"inconclusive [inhibitor, single point]",–
O=C(CCNS(=O)(=O)c1ccc(Br)cc1)N1CCN(c2ccccc2O)CC1,"inconclusive [inhibitor, single point]",–
CCOc1ccccc1C(=O)NCC(c1cccs1)S(=O)(=O)c1ccc(F)c(C)c1 (stereo unspecified),inactive,–
CCCC#Cc1ccc2c(c1)O[C@H](CN(C)S(=O)(=O)c1cccc(OC)c1)[C@H](C)CN([C@H](C)CO)S2(=O)=O,active: 14.6 µM,–
O=C(CSC1=NCCS1)N1N=C(c2cccs2)CC1c1ccc(F)cc1 (stereo unspecified),"inconclusive [inhibitor, partial curve]",–
CCOC(=O)C1(C)CCN1C(=O)c1ccc(C#N)cc1 (stereo unspecified),inactive,–
CC(C)S(=O)(=O)c1csc(C(=O)Nc2ccc(F)cc2)c1N,active: 20.6 µM,–
Cc1[nH]c(=O)[nH]c(=O)c1S(=O)(=O)N(CC(C)C)CC(C)C,inactive,–
O=C(O)CN1C(=O)/C(=C/c2ccc(SCc3ccccc3)o2)SC1=S,"inconclusive [inhibitor, single point]",–
O=c1c2c3c(sc2ncn1/N=C/c1ccc([N+](=O)[O-])o1)CCCC3,active: 2.59 µM,–
CC1(C)C=Cc2cc(-c3coc4cc(O)cc(O)c4c3=O)cc(O)c2O1,"inconclusive [inhibitor, single point]",–
CCOC(=O)c1noc2ncnc(N3CCN(c4cccc(C(F)(F)F)c4)CC3)c12,active: 16.4 µM,–
Cc1cc(=O)nc2c3ccccc3n(CC(=O)NCCC3=CCCCC3)n12,inactive,–
